Data from patent publication US6348470B1, “Antitussive compositions” (priority 1997, dated 2002).

Experiments:
[1] = test system: 15% citric acid spray induced cough; experiment: citric acid spray-induced cough model, acute antitussive activity, single oral treatment; settings: for decrease of cough number: 1 hour before second citric acid insult; for ED50: Cavia porcellus, po, 1 h, read-out: calculated ED50 (antitussive); for dose at which the antitussive effect was already significant: single oral treatment, 1 hour
[2] = test system: citric acid spray-induced cough; settings: literature, guinea pig; cited from earlier work
rats = experiment: acute oral toxicity in rats; settings: for antitussive therapeutic index (LD50/ED50): rat oral LD50 / guinea pig antitussive ED50
[3] = cited from earlier work; for plasma half-life (t1/2): human plasma
mucociliary clearance = mucociliary clearance of respiratory airways (99mTc-labelled red blood cells, gamma-camera); format: in vivo, rabbits; settings: 8 mg/kg intravenously, 30 min before inhalation, p<0.05
From the text: Patients with bronchitis are among those who most frequently use antitussive drugs. […] Wagner, U., et al., Eur.J.Pharmacol., 1996, 298:265). […] To investigate the effect of theobromine of mucociliary clearance activity the method of […]-Tuckerman was adapted ([…]., et al., Lung, 1992, 170:201). Bromhexine-HCl, a known secretolytic agent was used as reference substance. This model involves the administration of ^99mTechnecium-labelled homologues red blood cell suspension by inhalation. Theobromine and the reference agent bromhexine were administered intravenously 30 min before the inhalation of the labelled red blood cells. After the last inhalation of the nebulized cell suspension, the radioactivity was measured with a gamma-camera over the closed chest for a period of 60 min. The time-activity curves were generated and fitted to the measured points. The mucociliary clearance value was given as the amount of radioactive marker in percent elimination in unit of time (hour) The increase in mucociliary clearance value indicated quantitatively if the mucociliary activity has been enhanced by the previous drug treatment.

[4] = test system: 15% citric acid spray induced cough; experiment: time-dependency of the antitussive effect, citric acid cough model; format: in vivo, guinea pig; settings: 32 mg/kg p.o., FIG. 2
Method: It was justified by further experiments that the excellent antitussive effect of theobromine exists for several hours. The time-dependency of the antitussive effect of 32 mg/kg p.o. administered theobromine on Hartley guinea pigs was determined as specified in the 1 hour acute experiments.

[5] = test system: 15% citric acid spray induced cough; experiment: habit formation study, repeated administration for 14 days, citric acid cough model; format: in vivo, guinea pig; settings: 1 hour after treatment
Method: Some experiments have been carried out for habit formation studies. The aim of these experiments was to check whether the antitussive activity of theobromine remained constant after repeated (chronic) administration of the drug. The same method was adapted as described above. […] The antitussive effect was tested on Day1-Day7-Day14. The cough number was counted just before and 1 hour after the treatment on the indicated days. The control group (n=12) underwent the same protocol as the theobromine treated group (n=13).

[6] = 64 mg/kg oral, adjusted to control

| SMILES | antitussive activity [2] | decrease of cough number [1, 6] [%] | antitussive therapeutic index (LD50/ED50) (rats) | ED50 [1] [mg/kg] | dose at which the antitussive effect was already significant [1] [mg/kg] | plasma half-life (t1/2) [3] [h] | also measured |
| --- | --- | --- | --- | --- | --- | --- | --- |
| Cn1c(=O)[nH]c(=O)c2[nH]cnc21 [3-methylxanthine] |  |  |  |  |  |  | antitussive effect ([1]; according to our experiments, at higher doses the dose-activity curve breaks down): some antitussive effect in a narrow dose range |
| Cn1c(=O)c2[nH]cnc2n(C)c1=O.NCCN [Aminophylline, theophylline ethylenediamine] | practically ineffective |  |  |  |  |  |  |
| Cn1c(=O)c2c(ncn2C)n(C)c1=O [caffeine] |  | 48.4±3.1 |  |  |  |  | decrease of cough number ([1]; 32 mg/kg oral): 17.5±3.7%; antitussive effect ([1]; dose-range of 2-16 mg/kg oral): no antitussive effect |
| COc1ccc2c3c1O[C@H]1[C@@H](O)C=C[C@H]4[C@@H](C2)N(C)CC[C@@]341 [codeine, reference compound] |  | 54.2±5.7 | 8.7 | 49 | 8 | 2 to 4 |  |
| Cn1cnc2c1c(=O)[nH]c(=O)n2C [theobromine, 3,7-dihydro-3,7-dimethyl-1H-purine-2,6-dione] |  | 69.0±1.9 | 34 | 37 | 4 | 6.1 to 10 | antitussive therapeutic index relative to that of codeine (rats; LD50/ED50 of theobromine vs codeine): roughly 4 times; increase in mucociliary clearance (mucociliary clearance): 60%; duration of antitussive activity [4]: long-lasting antitussive activity; antitussive effect adjusted to control values ([5]; Day1, 32 mg/kg oral once a day): 46.1±2.3%; antitussive effect adjusted to control values ([5]; Day7, 32 mg/kg oral once a day): 54.1±3.4%; antitussive effect adjusted to control values ([5]; printed Day4 (third test day), 32 mg/kg oral once a day): 49.0±4.9%; effect of repeated dosing on metabolism and clearance of theobromine ([3]; men, 6 mg/kg/day in the form of dark chocolate for one week): altered neither the metabolism of theobromine nor its clearance |
| Cn1c(=O)c2[nH]cnc2n(C)c1=O [theophylline] | weak antitussive activity |  |  |  |  |  |  |
